Laboratory results: PubChem BioAssay AID686979 (National Center for Advancing Translational Sciences (NCATS), 2013)
Where “and” joins values, the source holds several entries; their conditions need not be identical. Equal entries are not always repeated. The whole screen tested about 420,000 compounds, of which about 50,000 (12%) were called active. Inconclusive results, whose numbers are uncertain, are shown with a selection of clear calls. The call rests on the fitted dose curve; in most records, active means well fitted inhibition curve with a large enough effect; inconclusive means small, poorly fitted or top-dose-only effect; inactive means flat fitted curve, though single readings scatter. Where the call is inconclusive, the potency comes from a doubtful curve fit.

Assay: qHTS for Inhibitors of human tyrosyl-DNA phosphodiesterase 1 (TDP1): qHTS in cells in presence of CPT; further: nearly all actives have a fitted effect of over 55% in size
Conditions: chicken DT40 Tdp1-/-;hTDP1 cells + 20 nM CPT, ATP luminescence, 48 h; activity change, negative = growth inhibition: at 46.2 µM (top of the series)
Procedure, shortened: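 Chicken DT40 Tdp1-/- cells stably complemented with human TDP1 were seeded at 400 cells/well in medium containing 20 nM camptothecin, exposed to pin-transferred compounds, and grown at 37 °C for at least 48 hr. Viability was read as ATP luminescence.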
On the % scale 0 is the no-effect control and ±100 the full control effect; potency means the concentration at half of the fitted maximal effect; tags describe the fitted curve by direction and shape.

Structure (SMILES)	Potency	activity change, negative = growth inhibition
N#Cc1ccc(C(=O)N2CCC3CC2c2cc(-c4ccccc4)ccc23)cc1 (stereo not drawn)	inconclusive: 9.2 µM [inhibitor, partial curve]	
CCN(Cc1cc2cc(C)ccc2[nH]c1=O)S(=O)(=O)c1ccccc1	inconclusive: 20.6 µM [inhibitor, single point]	
CC(=O)Oc1ccc(-c2cccc(C(=O)N3CCCCC3)c2)cc1	inconclusive: 29.1 µM [inhibitor, single point]	
Cc1nc2ccccc2c(=O)n1C1CCCCCC1	inconclusive: 29.1 µM [inhibitor, single point]	
COc1nc(Cc2ccc(Cl)cc2)nc2ccccc12		inactive: 2.87%
CC(C)Oc1cccc(C(=O)NC(=S)Nc2ccc3c4c(cccc24)CC3)c1	inconclusive: 29.1 µM [inhibitor, single point]	
Cc1ccc(NC(=O)c2cc(C)nc3ccccc23)cc1		inactive: 5.53%
CCOc1ccc(S(=O)(=O)N2CCNC(=O)C2)cc1		inactive: -8.23%
COc1ccc2ccccc2c1CN1CCOc2ccc(CN3CCN(CCO)CC3)cc2C1		inactive: 10.3% [at 9.04 µM]
O=[N+]([O-])c1cccc(COc2ccccc2CN2CCOCC2)c1	inconclusive: 23.1 µM [inhibitor, single point]	
COC(c1ccc(Cl)cc1)(c1ccc(Cl)cc1)C(Oc1nc(C)cc(C)n1)C(=O)O (stereo not drawn)	inconclusive: 29.1 µM [inhibitor, single point]	
CNC(=S)N/N=C/c1cn(Cc2ccc(C)cc2)c2ccccc12	active: 18.4 µM	
O=C(O)c1cc(-c2c[nH]c3ccccc23)nc2ccc3ccccc3c12		inactive: 11.1%
CCC(=O)N[C@@H]1CC[C@@H](CCNC(=O)Nc2ccc(F)cc2)O[C@@H]1CO		inactive: 6.53%
CCCCNC(=S)NNC(=O)c1ccc(Br)o1	inconclusive: 29.1 µM [inhibitor, single point]	
CC(=O)c1c(C)[nH]c(C(=O)CSc2nnc(C)s2)c1C	inconclusive: 6.51 µM [inhibitor, partial curve]	
COc1ccc(CCC(=O)Nc2cc(Cl)ccc2OC)cc1	inconclusive: 18.4 µM [inhibitor, single point]	
CC(=O)O[C@@H]1C[C@H]2C(C)=C[C@H]3OC(=O)[C@@H](C)[C@H]3C[C@H]2[C@]1(C)O		inactive: 20%
Cn1c2c(c(=O)[nH]c1=O)C(c1cccc(O)c1)C1=C(N2)c2ccccc2C1=O (stereo not drawn)	active: 7.31 µM	
CCN1C(=O)c2cccc3c(S(=O)(=O)Nc4nc(C)cs4)ccc1c23	inconclusive: 29.1 µM [inhibitor, single point]	
O=C(CSc1nc2ccccc2c(=O)n1CCCN1CCOCC1)Nc1ccc(Br)cc1	inconclusive: 29.1 µM [inhibitor, single point]	
CCN(CC)CCN(C(=O)c1ccc(S(=O)(=O)N(CC)c2ccccc2)cc1)c1nc2c(OC)ccc(OC)c2s1	inconclusive: 18.4 µM [inhibitor, single point]	
Cc1ccc(-n2ncc(C(=O)NCCN3CCc4ccccc4C3)c2C2CCN(C(=O)OC(C)(C)C)CC2)cc1	active: 20.6 µM	
Cc1cccc(C)c1OCc1nc2c3cnn(-c4cccc(F)c4)c3ncn2n1	active: 18.4 µM	
Cc1ccc(NC(=O)CSc2nncn2N)cc1C		inactive: 5.76%

Structure (SMILES)	Potency	activity change, negative = growth inhibition
COc1ccccc1S(=O)(=O)Cc1ccc(C(=O)N2CCN(c3ccccn3)CC2)o1	inconclusive: 11.6 µM [inhibitor, partial curve]	
CCCC#Cc1cnc2c(c1)C(=O)N([C@H](C)CO)C[C@@H](C)[C@H](CN(C)S(=O)(=O)c1cccc(OC)c1)O2	inconclusive: 18.4 µM [inhibitor, single point]	
CC1(C)CC(n2c(NCCO)nc3c(c2=O)C2(CCCC2)Cc2ccccc2-3)CCO1 (stereo not drawn)	inconclusive: 29.1 µM [inhibitor, single point]	
COc1ccc(CCNC(=O)CCc2ccc(S(=O)(=O)NCC(C)C)cc2)cc1OC		inactive: -9.19%
N#CCC1(O)C(=O)N(Cc2ccccc2)c2ccccc21 (stereo not drawn)		inactive: -16.4%
CCn1c(CNC(=O)COc2ccc(C(C)C)cc2)nnc1SCC(=O)Nc1ccccc1		inactive: -6.59%
CS(=O)(=O)N1CCC2(CCCN(C(c3ccccc3)c3ccccc3)C2)CC1	inconclusive: 25.9 µM [inhibitor, single point]	
O=CNc1cc(-c2ccc(C(=O)NC3CC3)cc2)cn2c(-c3ccc(F)cc3)cnc12	active: 23.1 µM	
O=C1Nc2ccc(Br)cc2C1(O)c1ccc(F)cc1 (stereo not drawn)		inactive: -21.1%
Cc1ccc(C(=O)Nc2c(C(=O)NCc3ccc(Cl)cc3)sc3nc(C)cc(C)c23)cc1	active: 9.2 µM	
O=C(CSc1ccccn1)Nc1ccc(Cl)cn1	inconclusive: 29.1 µM [inhibitor, single point]	
COc1cc(C)c(NC(C)C(=O)c2c(C)[nH]c3ccccc23)cc1OC (stereo not drawn)	inconclusive: 22.4 µM [inhibitor, single point]	
Cc1ccc(Nc2c(-c3ccc(N4CCOCC4)cc3)nc3ncccn23)cc1	inconclusive: 20.6 µM [inhibitor, single point]	
CN(C(=O)c1cccc(NC(=O)Cc2cccc(NC(=O)C3CCCN(C(=O)CCc4ccccc4)C3)c2)c1)C1CCC1 (stereo not drawn)	inconclusive: 29.1 µM [inhibitor, single point]	
CC(=O)Oc1cccc(/C=c2\sc3nc(-c4ccco4)nn3c2=O)c1	inconclusive: 20.6 µM [inhibitor, partial curve, poor fit]	
CC(=O)OC[C@H]1COc2ccc3ccccc3c2[C@H]1N(C)C(C)=O		inactive: -10.7%
C=CCNC(=O)c1sc(-c2ccccc2)nc1C		inactive: 0.74%
COC(=O)c1sc(NC(=O)c2c(C)noc2C)nc1C		inactive: 5.34%
CCOc1cc(/C=N/O)ccc1OCC(=O)Nc1cccc(C)c1		inconclusive: -30.4% [inhibitor]
CC(C)N1C(=O)/C(=C\c2nc3ccccc3c(=O)[nH]2)c2ccccc21	inconclusive: 16.4 µM [inhibitor, single point]	
COc1ccc(-c2csc3ncn(-c4ccccc4)c(=O)c23)cc1OC		inactive: -1.91%
Cc1ccc(C2(c3noc(CN4CCC(c5ccncc5)CC4)n3)CCCC2)cc1	active: 13 µM	
COc1cccc(/C=N/NC(=O)CNC(=O)CCc2ccccc2)c1O	inconclusive: 23.1 µM [inhibitor, single point]	
CC(Sc1nc(-c2ccc(F)cc2)cs1)C(=O)N1c2ccccc2CC1C (stereo not drawn)	inconclusive: 23.1 µM [inhibitor, single point]	
COCCn1c(SCC(=O)NCCCN2CCCC2=O)nc2sc3c(c2c1=O)CCCC3		inactive: 3.85%

Structure (SMILES)	Potency	activity change, negative = growth inhibition
CCN1CCN(c2cc3c(cc2F)c(=O)c(C(=O)O)cn3C2CC2)CC1	inactive and inconclusive: 3.66 µM [inhibitor, full curve, poor fit]	
Cc1cccc(NC(=S)NC2CC3C=CC2C3)c1 (stereo not drawn)		inactive: 3.87%
CCOC(=O)CSC1=C(C#N)C(c2ccccc2OCC)C(C#N)C(=O)N1 (stereo not drawn)	active: 14.6 µM	
CC(C)Oc1ccc(S(=O)(=O)N2CCCCC2)cc1NC(=O)C1CCC1	inconclusive: 18.4 µM [inhibitor, single point]	
COc1ccccc1COCC(O)CN(Cc1ccco1)Cc1ccccc1O (stereo not drawn)	inconclusive: 29.1 µM [inhibitor, single point]	
COc1cc(C2CC(=O)c3c([nH]c(C(=O)OC4CCCCC4)c3C)C2)cc(OC)c1OC (stereo not drawn)	active: 1.84 µM	
O=C(c1ccc2c(c1)OCO2)N1CCN(S(=O)(=O)c2ccc(Br)cc2Cl)CC1		inactive: -25.1%
CCN(CC)c1ccc(N=Cc2c(C)[nH]c3ccccc23)cc1	active: 6.51 µM	
CC(=O)Nc1ccc(-c2ccnc3c2CC(C(=O)NCC2CC2)O3)cc1 (stereo not drawn)	active: 13 µM	
C[n+]1ccccc1N1CCN(c2ccccc2Cl)CC1	active: 23.1 µM	
Cc1ccccc1NC1=NCC(c2ccc([N+](=O)[O-])cc2)S1 (stereo not drawn)	inconclusive: 20.6 µM [inhibitor, single point]	
CCc1nnc(NS(=O)(=O)c2ccc(N/C=C\C(=O)c3cccc4ccccc34)cc2)s1	inconclusive: 29.1 µM [inhibitor, single point]	
COc1cc(C(=O)Nc2ccc3c(c2)OCO3)ccc1OCc1c(C)noc1C		inactive: 16.6%
Cc1ccc(Sc2cnc3ccccc3n2)cc1	inconclusive: 0.291 µM [inhibitor, full curve, poor fit]	
CC1CCN(S(=O)(=O)N2CCC(C(=O)NCc3cccs3)CC2)CC1		inactive: -2.82%
COc1cccc(C(=O)NC2CCN(CC(=O)Nc3ccccc3Cl)CC2)c1	inconclusive: 25.9 µM [inhibitor, single point]	
Cc1ccc(CNC(=O)c2c3c(nc4ccccc24)C(=O)N(C2CCCCC2)C3)cc1	inconclusive: 23.1 µM [inhibitor, single point]	
CCn1c(=O)n(CC)c2cc(N3CCCC3)c(NC(=O)c3ccc(C)c([N+](=O)[O-])c3)cc21	active: 6.51 µM	
CCCCn1c2ccc(F)cc2c2nnc(SCCN(CC)CC)nc21	active: 20.6 µM	
CCn1c(SCC(=O)Nc2ccc(OC)cc2)nc2c(c1=O)SCC2		inactive: 1.92%
COC(=O)c1ccccc1NC(=O)C1CCN(C(=O)N2CCOc3ccccc32)CC1	inconclusive: 16.4 µM [inhibitor, single point]	
COc1ccc(Cl)cc1NC(=O)C(C)NC(c1ccccc1)c1ccccc1 (stereo not drawn)	inconclusive: 20.6 µM [inhibitor, single point]	
CN(CC(=O)Nc1cccc(C(F)(F)F)c1)S(=O)(=O)c1ccc2[nH]c3c(c2c1)CCCC3	inconclusive: 25.9 µM [inhibitor, single point]	
